In PubChem BioAssay AID1030 (National Center for Advancing Translational Sciences (NCATS), 2008):
The campaign covered roughly 220,000 compounds. About 16,000 (7.3%) were called active. This list was built around the results that the source calls inconclusive (neither active nor inactive); the mix of calls is not that of the screen. Calls follow the shape of the dose curve; as a rule, active = well fitted inhibition curve with a large enough effect (not every such curve was filed as active); inconclusive = small, poorly fitted or top-dose-only effect, or another doubt; inactive = no such curve, though single readings can be large or run the other way. Potencies of inconclusive entries are left out as doubtful fits.

Biological target: Aldehyde dehydrogenase 1A1 (Homo sapiens) (UniProt P00352)
Test: qHTS Assay for Inhibitors of Aldehyde Dehydrogenase 1 (ALDH1A1);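 as to activity, negative = inhibition: plate controls were no enzyme wells and a reference inhibitor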
Details: Purified ALDH1A1, NADH fluorescence, propionaldehyde substrate; series mostly up to 75.3 µM; activity, negative = inhibition: at the top concentration
Potency is read from the fitted curve at half-maximal effect; tags tell the direction and shape of the fitted curve.

Sequence of UniProt P00352 (P00352 whole entry, looked up): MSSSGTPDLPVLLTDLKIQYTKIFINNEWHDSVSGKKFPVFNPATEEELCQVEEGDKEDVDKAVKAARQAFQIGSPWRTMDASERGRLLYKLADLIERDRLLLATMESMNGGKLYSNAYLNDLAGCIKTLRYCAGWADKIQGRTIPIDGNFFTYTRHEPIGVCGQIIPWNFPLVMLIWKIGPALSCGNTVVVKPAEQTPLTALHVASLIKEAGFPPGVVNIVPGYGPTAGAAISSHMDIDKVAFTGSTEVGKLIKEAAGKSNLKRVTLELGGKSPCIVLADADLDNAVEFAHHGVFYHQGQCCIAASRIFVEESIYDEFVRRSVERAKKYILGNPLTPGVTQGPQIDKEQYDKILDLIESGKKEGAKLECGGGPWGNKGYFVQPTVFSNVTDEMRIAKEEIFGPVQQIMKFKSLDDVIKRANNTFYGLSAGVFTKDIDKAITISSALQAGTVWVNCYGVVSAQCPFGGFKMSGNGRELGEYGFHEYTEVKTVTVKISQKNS

| Compound | Potency | activity, negative = inhibition |
| --- | --- | --- |
| COc1ccc(C2C(C#N)=C(N)Oc3n[nH]c(-c4ccccn4)c32)c(OC)c1OC (stereo not drawn) | inconclusive [inhibitor, single point] |  |
| O=C(Nc1cc(S(=O)(=O)N2CCOCC2)ccc1O)c1ccc2c(c1)S(=O)(=O)c1ccccc1C2=O | active: 1.12 µM |  |
| CC(C)Cn1c(=O)c(C(=O)Nc2ccccc2S(N)(=O)=O)c(O)c2ccccc21 | inconclusive [inhibitor, single point] |  |
| Cc1ccc(C(=O)NC2CCN(CC(=O)NCc3cccs3)CC2)cc1 | inconclusive [inhibitor, single point] |  |
| CCN1CCN(CCOc2ccccc2OCc2ccccc2)CC1 | inconclusive [inhibitor, single point] |  |
| COc1ccccc1NC(=O)C(C)Sc1nnnn1C (stereo not drawn) | active: 8.91 µM |  |
| COc1ccc(/C=C/C(=O)N2CCC(c3ccccc3)C2)cc1 (stereo not drawn) | inconclusive [inhibitor, single point] |  |
| CC(=O)N(C)Cc1ccc(C(=O)CCl)cc1 | active: 0.708 µM |  |
| CC1CCCN(S(=O)(=O)c2ccc(NC(=O)Cn3nnc(-c4ccccc4F)n3)cc2)C1 (stereo not drawn) | inconclusive [inhibitor, single point] |  |
| Cc1noc(C)c1C(=O)N1CCC(CO)(Cc2ccccc2)CC1 | active: 3.98 µM |  |
| N#Cc1c(NCCCO)nc(-c2ccccc2)c2c1CCCC2 | inconclusive [inhibitor, partial curve] |  |
| Cc1ncoc1C(=O)N1CCCC(C(=O)c2ccc(-c3ccccc3)c(F)c2)C1 (stereo not drawn) | inconclusive [inhibitor, partial curve] |  |
| CCOC(=O)C1CCCN(C(=O)c2ccc3c(c2)OCO3)C1 (stereo not drawn) | inconclusive [inhibitor, single point] |  |
| O=c1c(-c2cc(F)cc(F)c2)nc2cnc(Nc3ccccc3)nc2n1C[C@H]1CCCO1 |  | inactive: 10.9% |
| O=C1C(=O)c2ccccc2C(O)=C1C(C1=C(O)c2ccccc2C(=O)C1=O)c1ccc(Cl)cc1 | inconclusive [inhibitor, partial curve, poor fit] |  |
| CCn1ncc(/C=N\NC(=O)c2cc(-c3ccc(C)cc3C)nc3ccccc23)c1C | inconclusive [inhibitor, single point] |  |
| CCOc1ccc(S(=O)(=O)Nc2ccccc2C(=O)N/N=C/c2c(OC)ccc3ccccc23)cc1 | inconclusive [inhibitor, single point] |  |
| COC(=O)c1ccccc1S(=O)(=O)C(C)(C)C |  | inactive: 2.83% |
| CCN(CC)S(=O)(=O)c1cc(NS(=O)(=O)c2c(Cl)cccc2Cl)ccc1C | inconclusive [inhibitor, single point] |  |
| O=C(COC(=O)c1ccc([N+](=O)[O-])o1)Nc1cccc(S(=O)(=O)N2CCCCC2)c1 | active: 11.2 µM |  |
| CC(C)(C)c1[nH]nc2c1C(Cc1ccccc1)C(C#N)=C(N)O2 (stereo not drawn) |  | inactive: -4.46% |
| S=c1[nH]nc(-c2cccc(Cl)c2)n1Cc1ccccc1 | inconclusive [inhibitor, partial curve] |  |

| Compound | Potency | activity, negative = inhibition |
| --- | --- | --- |
| COc1ccc(CC(=O)Nc2c3c(nn2-c2cccc(C)c2C)CS(=O)(=O)C3)cc1 | inconclusive [inhibitor, single point] |  |
| COc1cc(NC(=O)CSc2nc(C)c(C)c(C)n2)c(C)cc1[N+](=O)[O-] |  | inactive: 2.82% |
| CC(C)c1cc(-c2n[nH]c(=S)n2Cc2ccccc2)cs1 | active: 2 µM |  |
| O=C(NC1CC2CCC1C2)c1ccc(CN2CCOCC2)cc1 (stereo not drawn) | inconclusive [inhibitor, single point] |  |
| Cc1c(Cl)cccc1NC(=S)Nn1cnnc1 | active: 12.6 µM |  |
| COc1cc2c(cc1OC)C1=C(C#N)CN(CC(=O)O)CN1CC2 | inconclusive [inhibitor, partial curve] |  |
| CCOC(=O)N1CCC(NC(=O)c2cc(S(=O)(=O)N(CC)CC)ccc2F)CC1 | inconclusive [inhibitor, single point] |  |
| COc1cccc(/C=C/C(=O)OCC(=O)Nc2cccc(S(=O)(=O)N3CCCCC3)c2)c1OC | inconclusive [inhibitor, single point] |  |
| CCOC(=O)c1cc(S(=O)(=O)NC2CCN(C(=O)OCC)CC2)cn1C | inconclusive [inhibitor, single point] |  |
| CN(C)S(=O)(=O)c1ccc(NC(=O)c2cc(-c3cccs3)nc3ccccc23)cc1 | inconclusive [inhibitor, partial curve] |  |
| N#Cc1c(NC(=O)c2nc3ncccn3n2)sc2c1CCCCC2 | inconclusive [inhibitor, partial curve] |  |
| COC(=O)C1Sc2[nH]c(=O)sc2C(c2ccc(Cl)cc2)C1C(=O)OC (stereo not drawn) | active: 11.2 µM |  |
| O=C1CC(N2CCC(Cc3ccccc3)CC2)C(=O)N1CCc1ccccc1 (stereo not drawn) | active: 2.24 µM |  |
| COc1ccc(CCNC(=O)/C=C/C(=O)O)cc1OC | active: 25.1 µM |  |
| CC1=C(C(=O)OC2CCCCCC2)C(c2ccc(C)o2)C2=C(CCCC2=O)N1 (stereo not drawn) | inconclusive [inhibitor, partial curve] |  |
| CCCCCn1c2nc3ccccc3nc2c2c(=O)n(CC(C)C)cnc21 | inconclusive [inhibitor, partial curve] |  |
| O=C(NNC(=O)c1cc(-c2ccccc2)nn1-c1ccccc1)c1ccccc1 | inconclusive [inhibitor, single point] |  |
| O=C(OCC(=O)c1ccccc1Br)c1ccncc1 | inconclusive [inhibitor, single point] |  |
| CC(=O)N1C(=O)C2(C(C#N)=C(N)Oc3c2c(C)nn3-c2ccccc2)c2ccccc21 (stereo not drawn) | inconclusive [inhibitor, partial curve] |  |
| COc1cccc(C(=O)NCC(=O)N/N=C/c2cn[nH]c2-c2ccccc2)c1 | inconclusive [inhibitor, single point] |  |
| CC(=O)N1c2ccccc2NC2=C(C(=O)CCC2)C1c1ccc(F)cc1 (stereo not drawn) | inconclusive [inhibitor, partial curve] |  |
